PubChem BioAssay AID492949 (National Center for Advancing Translational Sciences (NCATS), 2010)
This list was built around the results that the source calls inconclusive (neither active nor inactive); the mix of calls is not that of the screen. Where the call is inconclusive, the potency comes from a doubtful curve fit. Calls of active or inactive are those of the source. The call rests on the fitted dose curve; in most records, active means well fitted activation curve with a large enough effect; inconclusive means small, poorly fitted or top-dose-only effect; inactive means no such curve, though single readings can be large or run the other way.

These compounds were tested against Relaxin receptor 1 (Homo sapiens) (UniProt Q9HBX9) (assay: qHTS Assay for Agonists of the Relaxin Receptor RXFP1: THP1 Hit Validation). Conditions: THP1-RXFP1 cells, cAMP TR-FRET, 30 min; series mostly up to 115 µM.
In short: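 THP1 cells stably expressing RXFP1 were exposed to compounds for 30 min at 37C with PDE4 inhibitor Ro 20174. Lysate cAMP was read by HTRF, normalized to buffer and 29 nM porcine relaxin, with Hill-fit EC50.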
Further: nearly all actives have a fitted effect of over 60% in size.
Potency means the concentration at half of the fitted maximal effect; tags describe the fitted curve by direction and shape.

Chain of UniProt Q9HBX9 (Q9HBX9 whole entry, looked up): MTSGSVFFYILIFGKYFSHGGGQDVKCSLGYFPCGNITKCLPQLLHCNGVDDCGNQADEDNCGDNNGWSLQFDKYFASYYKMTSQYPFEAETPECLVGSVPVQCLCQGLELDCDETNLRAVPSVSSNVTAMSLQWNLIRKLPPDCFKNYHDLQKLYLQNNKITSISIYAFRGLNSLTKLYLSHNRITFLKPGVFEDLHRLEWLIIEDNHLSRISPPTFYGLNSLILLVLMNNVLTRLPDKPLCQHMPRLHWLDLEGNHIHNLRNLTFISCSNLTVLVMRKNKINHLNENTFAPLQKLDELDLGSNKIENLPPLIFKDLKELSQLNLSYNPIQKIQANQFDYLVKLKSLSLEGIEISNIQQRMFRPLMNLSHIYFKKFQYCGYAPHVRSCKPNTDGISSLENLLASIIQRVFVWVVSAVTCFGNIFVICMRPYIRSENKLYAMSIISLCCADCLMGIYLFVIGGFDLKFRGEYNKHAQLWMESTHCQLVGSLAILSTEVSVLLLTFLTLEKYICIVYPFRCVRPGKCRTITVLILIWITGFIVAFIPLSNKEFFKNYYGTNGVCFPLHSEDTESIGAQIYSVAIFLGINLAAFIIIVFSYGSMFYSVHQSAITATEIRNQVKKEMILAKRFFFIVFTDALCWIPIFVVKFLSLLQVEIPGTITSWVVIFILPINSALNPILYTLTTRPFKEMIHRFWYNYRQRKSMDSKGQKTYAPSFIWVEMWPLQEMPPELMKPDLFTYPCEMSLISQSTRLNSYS

Row | SMILES | Potency
1 | COc1ccc(S(=O)(=O)N2CCOCC2)cc1NC(=O)CSc1ncnc2ccccc12 | inconclusive: 3.09 µM [activator, full curve]
2 | CCN(CC)S(=O)(=O)c1ccc(C)c(NC(=O)Cn2cnc3cc([N+](=O)[O-])ccc3c2=O)c1 | active: 12.3 µM
3 | Cc1c(Cl)cccc1NC(=O)CCCN1C(=O)c2cccnc2C1=O | inconclusive: 34.6 µM [activator, partial curve]
4 | O=C(Nc1ccccc1C(=O)NCc1ccco1)c1ccccc1 | inactive
5 | Cc1nn(CC(=O)NCCN2CCOCC2)c(=O)c2cc3sccc3n12 | inconclusive: 43.6 µM [activator, partial curve, poor fit]
6 | Cc1cc2c(SCC(=O)NCC3CCCO3)ncnc2s1 (configuration not stated) | inconclusive: 48.9 µM [activator, partial curve]
7 | O=C(Nc1ccccc1C(=O)NCc1ccccc1)c1ccco1 | inactive
8 | O=C1CCCN1CCCNc1ccc2nnc(CCC(=O)N3CCN(c4ccccc4)CC3)n2n1 | inconclusive: 9.77 µM [activator, full curve, poor fit]
9 | CCCN(CCC)S(=O)(=O)c1cc(CN2C(=O)c3cccnc3C2=O)ccc1OC | active: 24.5 µM
10 | CC(C)(C)C(=O)Nc1ccccc1C(=O)NCc1ccco1 | inactive
11 | c1ccc(COn2nnc3ccccc32)c(COn2nnc3ccccc32)c1 | inactive
12 | O=C(Nc1ccccc1C(=O)NCc1ccco1)c1ccco1 | inactive
13 | COc1ccc(/C=N/NC(=O)Cn2cnc3c2c(=O)n(C)c(=O)n3C)c(OC)c1OC | inconclusive: 43.6 µM [activator, partial curve]
14 | COc1ccc(Nc2ncc(C#N)c(N)n2)c(OC)c1 | inactive
15 | CCN(CC)C(=O)CSc1nnc2c3ccccc3n(C)c2n1 | inconclusive: 17.4 µM [activator, partial curve, poor fit]
16 | CC1(C)Cc2c(sc3c2c2ncnn2c2nnc(SCC(=O)NCc4ccco4)n32)CO1 | active: 5.49 µM
17 | Cc1ccc(CN(C)C(=O)c2ccccc2NC(=O)c2ccccc2)o1 | inactive
18 | Cc1ccc(C(=O)Nc2cccc(C(F)(F)F)c2)cc1NC(=O)c1cnnc2ccccc12 | inconclusive: 61.6 µM [activator, partial curve]
19 | Nc1ncnc2c1ncn2[C@@H]1O[C@H](COS(=O)(=O)O)[C@@H](O)[C@H]1O | inconclusive: 2.45 µM [activator, full curve]
20 | CC(C)c1ccccc1NC(=O)c1ccccc1NC(=O)C1CCCCC1 | inactive
21 | COCCNC(=O)NC(=O)COC(=O)C12CC3CC(CC(NC(C)=O)(C3)C1)C2 | inconclusive: 34.6 µM [activator, partial curve, poor fit]
22 | Cc1cccc(-c2nnc(SCC(=O)NC3CC3)n2C)c1 | inactive
23 | COC(=O)c1c(N2C(=O)CC(Sc3ncccc3C(=O)O)C2=O)sc(C)c1C (configuration not stated) | inactive
24 | CC(C(=O)Nc1cccnc1)n1cc([N+](=O)[O-])cn1 (configuration not stated) | inconclusive: 30.9 µM [activator, partial curve]
25 | Cn1c(N)c(C(=O)CSc2nnc(NC3CCCCC3)s2)c(=O)n(C)c1=O | inactive
26 | O=C(O)c1ccc(N=C2NC(=O)C(CO)(CO)S2)cc1 | inactive
27 | CC(=O)c1sc(NC(=O)C(C)C)nc1C | active: 19.4 µM
